Synthetic gut communities (20 or 21 species) grown anaerobically with drug for 24 h at the dose given, then challenged with the named pathogen. Pathogen growth (luminescence, or colony counts for V. cholerae) or community OD578 as fold of untreated communities, mean of three; above 1 = more growth. No active / inactive call.
Columns and labels:
[1] = system: Com20 synthetic gut community; test: Com20 community biomass OD578 after 24 h drug treatment relative to untreated (fraction of untreated control); higher = more community growth
[2] = system: Salmonella enterica Typhimurium in Com20; test: S. Typhimurium luminescence in drug-pretreated Com20 relative to untreated Com20 (fold of untreated control); higher = more pathogen expansion
[3] = system: Salmonella enterica Typhimurium (community: Com21 (Com20 + E. coli ED1a)); test: pathogen growth (luminescence or CFU) in drug-pretreated community relative to untreated community (fold of untreated control); higher = more pathogen expansion
[4] = drug pretreatment concentration 10 µM
[5] = drug pretreatment concentration 20 µM
[6] = drug pretreatment concentration 40 µM
[7] = drug pretreatment concentration 80 µM
[8] = drug pretreatment concentration 160 µM
[9] = drug pretreatment concentration 2.5 µM
[10] = drug pretreatment concentration 5 µM

SMILES	Com20 community biomass OD578 [1, 4]	Com20 community biomass OD578 [1, 5]	Com20 community biomass OD578 [1, 6]	Com20 community biomass OD578 [1, 7]	Com20 community biomass OD578 [1, 8]	S. Typhimurium luminescence [2, 4]	S. Typhimurium luminescence [2, 5]	S. Typhimurium luminescence [2, 6]	S. Typhimurium luminescence [2, 7]	S. Typhimurium luminescence [2, 8]	pathogen growth [3, 4]	pathogen growth [3, 5]	pathogen growth [3, 6]	pathogen growth [3, 7]	pathogen growth [3, 8]	Com20 community biomass OD578 [1, 9]	Com20 community biomass OD578 [1, 10]	S. Typhimurium luminescence [2, 9]	S. Typhimurium luminescence [2, 10]	pathogen growth [3, 9]	pathogen growth [3, 10]
COc1cccc2c1C(=O)c1c(O)c3c(c(O)c1C2=O)C[C@@](O)(C(=O)CO)C[C@@H]3O[C@H]1C[C@H](N)[C@H](O)[C@H](C)O1 [Doxorubicin]	0.964	0.935	0.89	0.888	0.922	1.08	0.943	0.567	0.5	1.12	1.34	0.803	0.653	1.19	1.13						
CC[C@H]1OC(=O)[C@H](C)[C@@H](O[C@H]2C[C@@](C)(OC)[C@@H](O)[C@H](C)O2)[C@H](C)[C@@H](O[C@@H]2O[C@H](C)C[C@H](N(C)C)[C@H]2O)[C@](C)(O)C[C@@H](C)C(=O)[C@H](C)[C@@H](O)[C@]1(C)O [Erythromycin]	0.391	0.336	0.355	0.331	0.329	6.43	5.63	5.8	6.07	5.67	4.55	4.43	5.3	12.2	23.7						
N[C@@H](Cc1cc(I)c(Oc2cc(I)c(O)c(I)c2)c(I)c1)C(=O)O [L-Thyroxin]	1.03	1.04	1.03			0.597	0.518	0.6			0.906	0.77	0.625			1.02	1.03	1.05	0.792	1.2	1.19
Clc1ccc(COC(Cn2ccnc2)c2ccc(Cl)cc2Cl)c(Cl)c1 (stereo not given) [Miconazole]	1.07	1.04	0.941	0.743	0.449	1.49	1.09	0.943	1.57	2.71	1.64	1.29	1.78	3.28	4.61						
COc1ccc2[nH]c([S+]([O-])Cc3ncc(C)c(OC)c3C)nc2c1 (stereo not given) [Omeprazole]	1.04	1.01	1.02	0.993	0.924	1.59	0.909	1.09	1.07	1.19	0.938	0.843	0.887	0.777	0.727						
CN(N=O)C(=O)N[C@@H](C=O)[C@@H](O)[C@H](O)[C@H](O)CO [Streptozotocin]	1.01	0.984	0.846	0.841	0.76	1.52	2.07	4.36	5.04	3.49	4.38	8	17	18.5	23.4						

— the supplement of paper PMC12350171
